Data taken from PMC9033276.
Results are given in words; binding and its absence hold for the method and conditions named. Some binding calls cover weakened binding; strength is not graded here.

By UniProt entry, the sequences of proteins in these tests, tags left out. Where a name states a change or a piece, a line headed by the entry shows the natural chain unless it says otherwise. Chains listed by the source or under a name are the forms on record and can include a tag or linker. Residues count along the entry.
UniProt P03950: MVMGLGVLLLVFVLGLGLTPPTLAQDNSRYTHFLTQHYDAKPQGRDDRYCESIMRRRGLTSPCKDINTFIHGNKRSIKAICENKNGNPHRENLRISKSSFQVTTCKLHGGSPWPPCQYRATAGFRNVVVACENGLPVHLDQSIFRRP
angiogenin (wild-type ANG, pDBLeu-ANG): residues 25-147 of P03950
ANG C-terminal half, residues 63–123: residues 87-147 of P03950
ANG segment of residues 83–123: residues 107-147 of P03950
ANG segment of residues 93–123: residues 117-147 of P03950
ANG mutant, 101st residue arginine (R101) mutated to isoleucine (I) (P03950, form named): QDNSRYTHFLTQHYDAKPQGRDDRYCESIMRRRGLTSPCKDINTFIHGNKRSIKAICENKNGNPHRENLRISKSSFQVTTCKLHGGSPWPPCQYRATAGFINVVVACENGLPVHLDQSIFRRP
UniProt P35609: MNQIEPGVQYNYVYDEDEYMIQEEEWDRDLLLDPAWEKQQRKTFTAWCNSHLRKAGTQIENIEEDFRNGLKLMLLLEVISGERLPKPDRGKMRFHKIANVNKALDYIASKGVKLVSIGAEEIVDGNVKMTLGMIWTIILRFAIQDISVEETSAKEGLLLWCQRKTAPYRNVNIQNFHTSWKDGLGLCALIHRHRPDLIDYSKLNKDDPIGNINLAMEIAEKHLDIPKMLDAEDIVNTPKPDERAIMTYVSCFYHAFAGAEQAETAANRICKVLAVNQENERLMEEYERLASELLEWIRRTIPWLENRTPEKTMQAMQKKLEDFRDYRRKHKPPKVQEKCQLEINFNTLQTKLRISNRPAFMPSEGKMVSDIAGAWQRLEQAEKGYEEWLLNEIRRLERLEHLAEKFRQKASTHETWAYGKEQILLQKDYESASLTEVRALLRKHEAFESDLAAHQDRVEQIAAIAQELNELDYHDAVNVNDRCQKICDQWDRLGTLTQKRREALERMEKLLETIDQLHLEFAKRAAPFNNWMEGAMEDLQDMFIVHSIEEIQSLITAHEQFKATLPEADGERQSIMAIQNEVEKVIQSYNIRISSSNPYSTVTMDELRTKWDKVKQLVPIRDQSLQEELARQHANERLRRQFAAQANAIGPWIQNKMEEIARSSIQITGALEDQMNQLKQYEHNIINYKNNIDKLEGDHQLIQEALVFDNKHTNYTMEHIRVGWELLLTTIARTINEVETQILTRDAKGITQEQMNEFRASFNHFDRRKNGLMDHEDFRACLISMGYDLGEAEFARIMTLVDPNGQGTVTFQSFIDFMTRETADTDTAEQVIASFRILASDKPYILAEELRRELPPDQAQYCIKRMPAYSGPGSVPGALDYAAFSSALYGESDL

Tests used:
Test in all cases: two-hybrid; ProQuest Two-Hybrid System (Gibco), MaV203 yeast; ANG or its segments/mutants in pDBLeu (bait) co-transfected with ACTN2 or its segments in pPC86; X-gal assay of lacZ reporter, graded against control strains A-E
[1] = target: angiogenin (wild-type ANG, pDBLeu-ANG) (human) (UniProt P03950)
[2] = target: ANG C-terminal half, residues 63–123 (human) (UniProt P03950)
[3] = target: ANG mutant, 101st residue arginine (R101) mutated to isoleucine (I) (human) (UniProt P03950)
[4] = target: ANG segment of residues 83–123 (human) (UniProt P03950)
[5] = target: ANG segment of residues 93–123 (human) (UniProt P03950)

| binding [1] | Substance | also measured |
| --- | --- | --- |
| no binding | ACTN2-383–620 (from UniProt P35609 383-620) (domain or fragment) | – |
| no binding | ACTN2-391–632 (from UniProt P35609 391-632) (domain or fragment) | – |
| – | alpha-actinin 2 (pPC86-ACTN2) (from UniProt P35609 1-894) | binding [2]: binds; binding [3]: no binding; binding [4]: binds; binding [5]: no binding |
| no binding | ACTN2-404–739 (from UniProt P35609 404-739) (domain or fragment) | – |
| binds | ACTN2-375–894 (from UniProt P35609 375-894) (domain or fragment) | – |
| no binding | ACTN2-398–632 (from UniProt P35609 398-632) (domain or fragment) | – |
| no binding | ACTN2-398–739 (from UniProt P35609 398-739) (domain or fragment) | – |
| binds | ACTN2-383–632 (two-hybrid construct) (from UniProt P35609 383-632) (domain or fragment) | – |
| no binding | ACTN2-398–655 (from UniProt P35609 398-655) (domain or fragment) | – |
| binds | ACTN2-375–739 (from UniProt P35609 375-739) (domain or fragment) | – |
| no binding | ACTN2-404–655 (from UniProt P35609 404-655) (domain or fragment) | – |
